The structures appear in SMILES notation.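 Five compound concentrations were applied to cells in 96-well plates for 48 hours; endpoints were derived by simple linear interpolation of the resulting dose-response curve. GI50 is the concentration that inhibits growth by half.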 Active and inactive are the calls of the source. Rule as the data show it: active = GI50 up to about 1.1 µM and inactive = higher.

In the assay the test system is NCI-H322M. Description: inhibition of tumour cell growth, NCI panel, 48 h.
`NC(Cc1ccccc1)P(=O)(O)O` (stereo not drawn): the GI50 was inactive: > 100 µM.
On to `Nc1cc(O)c2c(c1O)C(=O)C=CC2=O`, for which the GI50 was inactive: 19.9 µM.
In the case of `O=C(C[N+]1(c2ccccc2)CCOCC1)c1ccccc1`, the GI50 was inactive: > 100 µM.
Take `CN(C)c1ccc(C=c2c3ccccc3n3c2c2c([n+]3C)CCCC2)cc1`: the GI50 was active: 0.38 µM.
As for `COc1c2c(c(OC)c3c1c(=O)c1ccccc1n3C)OCO2`, the GI50 was inactive: 14.1 µM.
The value for `COC(=O)c1ccc(C)cc1C1CN=NC12Cc1cc(C)ccc1C2=O` (stereo not drawn) was inactive: 28.2 µM; that for `COc1cc(/C=C/C(=O)C2(C(=O)/C=C/c3cc(OC)c(OC)c(OC)c3)CCCCC2)cc(OC)c1OC` was inactive: > 100 µM; that for `Cc1cc(C)c2c(c1)C/C(=C\c1cccc(C)c1C(=O)O)C2=O` was inactive: 80.7 µM.
On to `NC1=NC2=C(CCCC2)C(c2cccs2)S1` (stereo not drawn), for which the GI50 was inactive: > 100 µM.
For `CCOC(=O)c1cnc2oc(-c3ccc(OC)cc3)nn2c1=O`, the GI50 was inactive: > 100 µM.
Turning to `C(/C=C/N1CCCC1)=C\c1nc(N2CCCC2)c2ccccc2n1`, the GI50 was inactive: 75.7 µM.
For `CC(C)(C)[Si](C)(C)OCCCC#CCO`, the GI50 is inactive: > 100 µM.
The value for `Cc1cc(C)c(N[S+]([O-])c2cccc(C(F)(F)F)c2)c(C)c1` (stereo not drawn) was inactive: > 100 µM.
As to `CN(C)CCN1N=Nc2cccc3cccc1c23`, the GI50 was inactive: > 100 µM.
`Cc1cccc(/N=N/c2c(C)nn(C(=O)CC(=O)Nc3ccc(Cl)cc3)c2C)c1`: the GI50 is inactive: 67.8 µM.
Consider `CCCNC(=S)N/N=C/c1cccc(C)n1`, for which the GI50 is inactive: 39.7 µM.
For `CC1=CP(=O)(c2c(C(C)C)cc(C(C)C)cc2C(C)C)CCC1Cl` (stereo not drawn), the GI50 was inactive: 14.6 µM.
The value for `COc1nc(NC2OC(COC(C)=O)C(OC(C)=O)C(OC(C)=O)C2OC(C)=O)c(/N=C(\C)C(C)=O)c(=O)n1C` (stereo not drawn) was inactive: > 100 µM; that for `COc1ccc(N(CN2C(=O)CCC2OC)C(C)=O)cc1` (stereo not drawn) was inactive: > 100 µM; that for `O=S(=O)(O)c1ccc(/N=N/c2ccccc2)cc1` was inactive: > 100 µM.
For the molecule `c1cc(CSP234N5CCN2CCN3CCN4CC5)cc(CSP234N5CCN2CCN3CCN4CC5)c1`, the GI50 was inactive: 29.9 µM.
As to `CC(C)=CC(=O)c1[nH]c2ccccc2c1CC(=O)NCCc1cncn1C`, the GI50 is inactive: 74.1 µM.
`COC(=O)c1ccc(C)cc1CC1Cc2c(C)cccc2C1=O` (stereo not drawn): the GI50 is inactive: 32.7 µM.
The value for `CNC(=O)CCC(NC(C)=O)C(=O)NC(Cc1ccc(NC(=O)CCCCC(C)=O)cc1)C(=O)NC(CCC(=O)NC)C(=O)NC` (stereo not drawn) was inactive: > 100 µM; that for `COc1ccc(C2Oc3c(cccc3OC)C=C2[N+](=O)[O-])cc1` (stereo not drawn) was inactive: 3.27 µM; that for `O=C(c1ccccc1)N(CCCCNC(=O)C(F)(F)F)CCCNC(=O)C(F)(F)F` was inactive: > 100 µM.
As to `CC(=O)c1c2c(cc3c1CC1(Cc4cc5c(cc4C1)CCC5)C3)CCC2`, the GI50 was inactive: > 100 µM.
As for `CC(=O)SC(C[N+](=O)[O-])c1ccccc1` (stereo not drawn), the GI50 is inactive: 17.2 µM.
Turning to `COc1ccc(-c2cn3c(nc4ccccc43)c(/C=C/c3cccs3)n2)cc1`, the GI50 is inactive: 64.1 µM.
The value for `COc1cc2c(cc1OC)C(Cc1cc(Br)c(OC)c(OC)c1)=[N+](C)CC2` was inactive: > 100 µM.
The value for `CC(=O)OCC1OC(NC(=S)Nn2c(-c3ccccc3)nc3ccccc3c2=O)C(OC(C)=O)C(OC(C)=O)C1OC(C)=O` (stereo not drawn) was inactive: > 100 µM; that for `CO/N=C(\C(=O)[N-]n1cn[n+](CC(=O)OC(C)(C)C)c1)c1csc(NC(c2ccccc2)(c2ccccc2)c2ccccc2)n1` was inactive: > 10 µM.
In the case of `CC1=C2CC(C)(C)/C=C\C(=O)/C(C)=C\C3=C[C@H](C)C[C@]3(O2)C1=O`, the GI50 was inactive: 4.78 µM.
For the molecule `COc1ccc(CNc2nc(NCc3ccc(OC)cc3)nc(NC(C)C)n2)cc1`, the GI50 was inactive: 11.4 µM.
`NC(=O)c1cn(Cc2ccccc2)c(=O)n1Cc1ccccc1`: the GI50 was inactive: > 100 µM.
Turning to `CN(C)/C=N\c1nncc2[nH]nnc12`, the GI50 is inactive: > 100 µM.
The value for `Clc1ccc(/C=N/c2ccc(Oc3ccc(Cl)cc3)c(Cl)c2)cc1` was inactive: 23.8 µM.
In the case of `COc1ccc(C(F)(F)F)cc1NC(=O)O/N=C(/Cl)C(C)C`, the GI50 is inactive: 18.8 µM.
For `COC(=O)/C=C/c1c(CC=C(C)C)ncn1C`, the GI50 was inactive: > 80 µM.
Consider `CCOC(=O)/C(C#N)=C(O)/C(=C\c1ccc(Br)cc1)NC(=O)c1ccccc1`, for which the GI50 was inactive: > 100 µM.
As for `COC(=O)C1C(=O)C(C(=O)OC)C2CCC1N2C` (stereo not drawn), the GI50 was inactive: > 100 µM.
As for `O=[N+]([O-])c1ccc(Sc2c3ccccc3nc3cc(Cl)ccc23)cc1`, the GI50 was inactive: > 10 µM.
Under `Cc1ccc(C(=O)Nc2ncn(C3CC(O)C(CO)O3)c(=O)n2)cc1` (stereo not drawn) stands inactive: > 100 µM; under `COc1cc([C@@H]2c3cc4c(cc3[C@@H](OC(=O)c3ccccc3)C3COC(=O)[C@@H]32)OCO4)cc(OC)c1O` (stereo partly drawn), active: 0.0264 µM; under `O=C1C=CC=C/C1=C1\N=C(c2ccccc2OCC(=O)c2ccc(Br)cc2)SS1`, inactive: > 100 µM.
Consider `CCOC(=O)c1ccc(-c2cccs2)[nH]1`, for which the GI50 was inactive: > 100 µM.
Under `COc1cccc2cc(C(N)=O)c(=N)oc12` stands inactive: 39.8 µM; under `CCOC(=O)/C(C#N)=C1\c2c([nH]c(=S)[nH]c2=O)Oc2ccc3ccccc3c21`, active: 0.064 µM; under `COc1cc(Br)c(/C=N\c2cccc3cc(OC)c(OC)cc23)cc1OC`, inactive: > 100 µM.
With `NC1=NN(c2ccccc2)C(=O)C1/C(=N\NC(=O)c1cc2ccccc2cc1O)C(=O)Nc1nc([N+](=O)[O-])cs1` (stereo not drawn), the GI50 is inactive: 24.6 µM.
Take `CCOc1cc(/C=N/c2ccc(Oc3ccc(Cl)cc3)c(Cl)c2)ccc1O`: the GI50 is inactive: 24 µM.
In the case of `CCCCCCCCCCCCC/C=C(/COCC[N+](C)(C)C)OC(C)=O.CCCCCCCCCCCCCC/C(=C/OCC[N+](C)(C)C)OC(C)=O`, the GI50 is inactive: 2.96 µM.
Under `O=C(CC(NC(=O)OCc1ccccc1)C(=O)NC1Cc2ccccc2C1=O)OCc1ccccc1` (stereo not drawn) stands inactive: > 100 µM.
In the case of `COc1c2occc2c(OC)c2c(=O)c(S(=O)(=O)NC(=O)Nc3ccc(Cl)cc3)coc12`, the GI50 is inactive: > 10 µM.
As to `N#C/N=C(/NCc1ccccc1)N(Cc1ccccc1)Cc1ccccc1`, the GI50 is inactive: > 31.6 µM.
Under `CC(=O)OC1(C(C)=O)CC2(c3ccccc3)OC1(c1ccccc1)c1ccccc12` (stereo not drawn) stands inactive: 67.5 µM; under `CN/N=C(/c1nc2ccc([N+](=O)[O-])cc2nc1O)C(O)c1ccc(C(O)/C(=N\NC)c2nc3ccc([N+](=O)[O-])cc3nc2O)cc1` (stereo not drawn), inactive: > 100 µM.
On to `C=CCNC1=C2C[C@@H](C)C[C@@H](OC)C(OC(=O)CCCN(C)C)[C@H](C)/C=C(\C)[C@@H](OC(N)=O)[C@H](OC)/C=C\C=C(/C)C(=O)NC(=CC1=O)C2=O` (stereo partly drawn), for which the GI50 was inactive: 6.81 µM.
Take `O=C(c1ccccc1)c1c(-c2ccccc2)n(-c2ccccc2)[nH]c(=O)c1=O`: the GI50 is inactive: 79.6 µM.
`O=c1[nH]c2cc3cccnc3c(Cl)c2nc1CBr`: the GI50 is inactive: 15.3 µM.
Under `COc1cccc(C(=O)C(O)c2cccc(OC)c2OC)c1OC` (stereo not drawn) stands inactive: > 100 µM; under `COc1ccc([C@H]2CC3C(=O)N(c4ccc(OC)cc4)C(=O)C3c3[nH]c4ccccc4c32)cc1` (stereo partly drawn), inactive: 91.2 µM; under `CCn1c(O)c(C(=O)Nc2cccs2)c(=O)n(CC)c1=S`, inactive: 25.5 µM.
For the molecule `COc1ccc(Nc2nc3ccccc3nc2C(=O)O)cc1`, the GI50 was inactive: > 100 µM.
With `CN(C)Cc1cc(C=O)cc(CN(C)C)c1O`, the GI50 is inactive: > 100 µM.
Turning to `O=C1CC(C[C@H](O)C2CCCCC2O)CC(=O)N1Cc1ccccc1` (stereo partly drawn), the GI50 is inactive: > 100 µM.
The value for `Nc1ccc2nc3n(c2c1)C(c1c(F)cccc1F)SC3` (stereo not drawn) was inactive: > 100 µM; that for `C=C1C(=O)O[C@H]2C1C[C@@H](O)[C@@]1(C)OC1CC[C@@]1(C)O[C@H]21` (stereo partly drawn) was inactive: 21.2 µM.
Turning to `CC(C)(C)C(=O)C(C(c1ccccc1)N1CCOCC1)N1CCOCC1` (stereo not drawn), the GI50 is inactive: > 100 µM.
As to `O=c1cc(-c2cc(O)c(O)c(-c3c(O)cc4oc(-c5ccc(O)c(O)c5)cc(=O)c4c3O)c2)oc2cc(O)cc(O)c12`, the GI50 is inactive: > 25 µM.
As for `[O-][n+]1c2ccccc2[n+]([O-])c2cc(Br)ccc21`, the GI50 is inactive: 6.15 µM.
In the case of `N#CC(C#N)=Cc1cccc(Oc2ccccc2)c1`, the GI50 was inactive: 42.6 µM.
`C=CC(C)(C)/C=C/c1ccc(O)cc1`: the GI50 is inactive: 69.5 µM.
Consider `O=C(CCC(=O)c1ccsc1)c1ccsc1`, for which the GI50 is inactive: 56.8 µM.
`Brc1cccc(Nc2ncnc3sc4c(c23)CCC2(C4)OCCO2)c1`: the GI50 was inactive: 8.87 µM.
`COC1(C)CC2N(C(=O)c3ccccc3)N=C(c3ccccc3)CC2(C)O1` (stereo not drawn): the GI50 was inactive: > 100 µM.
With `Clc1ccc(C(OCn2ccnc2)c2nc3ccccc3[nH]2)c(Cl)c1` (stereo not drawn), the GI50 is inactive: > 100 µM.
For the molecule `CC(/C=C/C(=O)c1sc(C(N)=S)nc1C)=C\c1ccccc1`, the GI50 is inactive: > 100 µM.
Under `O=NC1c2cccc3cccc(c23)C1N=O` (stereo not drawn) stands inactive: 11.1 µM; under `COC(O)C(=O)c1c2c(cc3c1CCC3)CCC2` (stereo not drawn), inactive: > 100 µM; under `CSc1ccc2c(cc1=O)C(NC(=O)c1ccccc1)CCc1cc(O)c(O)c(O)c1-2` (stereo not drawn), inactive: 3.59 µM.
For the molecule `O=[N+]([O-])c1ccccc1S(=O)(=O)c1ccccc1`, the GI50 was inactive: > 100 µM.
In the case of `C=C1C(=O)O[C@@H]2/C=C(/C)[C@@H](OC(C)=O)C[C@@H](O)/C(C)=C\[C@@H](OC(=O)[C@]3(C)O[C@@H]3C)[C@@H]12`, the GI50 is inactive: 66.4 µM.

These data come from ChEMBL document CHEMBL1201862, “PubChem BioAssay data set” (2004).
